Drawing on patent US9085531B2 (priority 2004, dated 2015), this text covers Ki for four compounds.

Assay [1] has as its target human DA transporter (DAT) (Homo sapiens (Human), UniProt Q01959). The note with it: read-out: Ki, nM DAT; Table 2; inhibition of radioligand binding at the human transporter.
In assay [2] the target is human 5HT transporter (5HTT, SERT) (Homo sapiens (Human), UniProt P31645). The conditions noted are these: read-out: Ki, nM SERT; Table 2; inhibition of radioligand binding at the human transporter.

One may read the Ki as a dissociation constant, usually derived from enzyme kinetics or from competition with a known ligand. On to `CN1Cc2cc(-c3cccnn3)ccc2C(c2cc3ccccc3o2)C1` (racemic) [Example 117, (+/−)-4-benzofuran-2-yl-2-methyl-7-pyridazin-3-yl-1,2,3,4-tetrahydroisoquinoline], for which the Ki in assay [1] was determined as 41.3 nM; in assay [2] it was 4.1 nM.

As to `COc1c(C2CN(C)Cc3cc(-c4ccc(C)nn4)ccc32)ccc2sccc12` (single isomer, unassigned; (+)) [Example 84, (+)-4-(4-Methoxy-benzothiophen-5-yl)-2-methyl-7-(6-methyl-pyridazin-3-yl)-1,2,3,4-tetrahydroisoquinoline], the Ki in assay [2] amounted to 12.9 nM.

On to `CN1Cc2cc(-c3cccnn3)ccc2C(c2ccc3sccc3c2)C1` (single isomer, unassigned; (+)) [Example 97, (+)-4-benzo[b]thiophen-5-yl-2-methyl-7-pyridazin-3-yl-1,2,3,4-tetrahydroisoquinoline], for which the Ki in assay [2] was determined as 2.2 nM.

On to `CN1Cc2cc(-c3cccnn3)ccc2C(c2cc3ccccc3s2)C1` (stereo not drawn) [Example 70], for which the Ki in assay [1] is 119 nM; in assay [2] it was 2.2 nM.
